We go through 59 molecules from the supplement of paper PMC9446081.

About 220 (0.56%) of roughly 39,000 compounds showed activity. This is one part of the list.
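Further: static incubation at 37 °C against the wild-type strain, values averaged over two biological replicates.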

The test system of the test is Escherichia coli K-12 BW25113. Kind of test: relative growth (OD600 normalised to plate interquartile mean) (fraction); higher = less growth inhibition, active = 0.2 or less. To be noted: 50 µM; LB; incubation time: overnight (16-24 h).
For `COc1ccc(C#Cc2ccc3c(c2)[C@]2(C(=O)N3)[C@H](c3ccc(OCCO)cc3)N3[C@H](c4ccccc4)[C@H](c4ccccc4)OC(=O)[C@H]3[C@@H]2C(=O)NC[C@H](O)c2ccccc2)cc1`, the relative growth is inactive: 1.1. The value for `C[C@@H]1CN([C@H](C)CO)S(=O)(=O)c2ccc(C#C[C@@H](C)O)cc2O[C@H]1CN(C)C(=O)c1ccncc1` was inactive: 1.02; that for `COc1ccc(S(=O)(=O)N(C)C[C@@H]2Oc3c(NC(=O)C4CC4)cccc3C(=O)N([C@H](C)CO)C[C@@H]2C)cc1` was inactive: 1.01; that for `C[C@H](CO)N1C[C@H](C)[C@@H](CN(C)C(=O)Nc2ccc(F)cc2)Oc2cc(C#CC3(O)CCCC3)ccc2S1(=O)=O` was inactive: 1.02. Turning to `O.O.OCC1OC(OC2OC(CO)C(O)C(O)C2O)C(O)C(O)C1O` (centres undefined), the relative growth is inactive: 1.12. In the case of `C[C@H](O)C#Cc1cnc2c(c1)C(=O)N([C@H](C)CO)C[C@@H](C)[C@@H](CN(C)C(=O)Nc1ccc(C(F)(F)F)cc1)O2`, the relative growth is inactive: 0.987.

Turning to `C[C@H]1CCCCO[C@@H](CN(C)C(=O)NC2CCCCC2)[C@@H](C)CN([C@@H](C)CO)C(=O)c2cc(NC(=O)Nc3ccc(C(F)(F)F)cc3)ccc2O1`, the relative growth is inactive: 1.03.

Take `C[C@@H]1CN([C@H](C)CO)C(=O)c2cc(NS(=O)(=O)c3ccc(Cl)cc3)ccc2O[C@@H](C)CCCCO[C@H]1CN(C)C(=O)C1CCCCC1`: the relative growth was inactive: 1.01. Regarding `C[C@@H]1CCCCO[C@@H](CN(C)Cc2ccc(C(F)(F)F)cc2)[C@@H](C)CN([C@H](C)CO)C(=O)c2cc(NC(=O)Cc3ccccc3)ccc2O1`, the relative growth was inactive: 1.03. The same measure for `CCC(=O)N[C@@H]1CC[C@H](CC(=O)OC)O[C@@H]1CO`: inactive: 1; for `CC(C(=O)O)c1ccc2c(c1)[nH]c1ccc(Cl)cc12` (centres undefined): inactive: 1.11; for `Cc1noc(C)c1S(=O)(=O)N(C)C[C@H]1Oc2ccc(NC(=O)CCN3CCOCC3)cc2CC(=O)N([C@H](C)CO)C[C@H]1C`: inactive: 1.01. With `C[C@@H](NC(=O)C[C@@H]1CC[C@H](NC(=O)CN2CCOCC2)[C@H](CO)O1)c1ccccc1`, the relative growth was inactive: 1.03. The same measure for `Cc1noc(C)c1S(=O)(=O)Nc1ccc2c(c1)C(=O)N([C@@H](C)CO)C[C@@H](C)[C@H](CN(C)Cc1ccncc1)O2`: inactive: 0.993; for `Cl.c1ccc(CC2=NCCN2)cc1`: inactive: 0.98; for `C[C@@H]1CN([C@@H](C)CO)C(=O)Cc2cc(NS(=O)(=O)c3cccs3)ccc2O[C@@H]1CN(C)Cc1ccc(Oc2ccccc2)cc1`: inactive: 0.771. Regarding `C[C@@H]1CCCCO[C@H](CN(C)C(=O)Nc2ccccc2)[C@@H](C)CN([C@@H](C)CO)C(=O)c2cc(NC(=O)c3ccncc3)ccc2O1`, the relative growth is inactive: 0.994. With `CO[C@@H]1CN(C)C(=O)c2ccc(NC(=O)Nc3ccccc3)cc2OC[C@H](C)N(C(=O)CN(C)C)C[C@H]1C`, the relative growth is inactive: 0.925.

Turning to `C[C@H](CO)N1C[C@H](C)[C@H](CN(C)S(C)(=O)=O)Oc2ccc(NC(=O)Cn3cnnn3)cc2C1=O`, the relative growth was inactive: 1.02. Take `COc1ccc(NC(=O)Nc2ccc3c(c2)C(=O)N([C@H](C)CO)C[C@@H](C)[C@H](CN(C)S(=O)(=O)c2ccc(Cl)cc2)OCCCC[C@@H](C)O3)cc1`: the relative growth was inactive: 1.06.

In the case of `CO[C@H]1CN(C)C(=O)c2ccc(NC(=O)NC(C)C)cc2OC[C@@H](C)N(Cc2ccc(-c3ccccn3)cc2)C[C@@H]1C`, the relative growth was inactive: 1. Take `NCc1ccc(-c2nccs2)cc1`: the relative growth is inactive: 0.993. Consider `C=CCNC1=C2C[C@@H](C)C[C@H](OC)[C@H](O)[C@@H](C)/C=C(\C)[C@H](OC(N)=O)[C@@H](OC)/C=C\C=C(/C)C(=O)NC(=CC1=O)C2=O`, for which the relative growth is inactive: 0.983. The same measure for `O=C(C[C@@H]1C[C@H]2c3cc(NC(=O)Nc4ccc(C(F)(F)F)cc4)ccc3O[C@H]2[C@H](CO)O1)NCc1ccc(Cl)cc1`: inactive: 0.984; for `O=C(C[C@H]1CC[C@H]2[C@@H](COC[C@@H](O)CN2S(=O)(=O)c2ccccc2)O1)N1CCOCC1`: inactive: 0.964. The same measure for `C[C@H](CO)N1C[C@H](C)[C@H](CN(C)Cc2ccc(C(F)(F)F)cc2)Oc2c(NS(=O)(=O)c3ccc(Cl)cc3)cccc2C1=O`: inactive: 0.994. As to `C[C@H](CO)N1C[C@H](C)[C@@H](CN(C)CC2CC2)Oc2ccc(NC(=O)Cn3cnnn3)cc2CC1=O`, the relative growth was inactive: 1.

With `C[C@@H]1CN([C@@H](C)CO)C(=O)c2cc(NS(=O)(=O)c3ccc(Cl)cc3)ccc2O[C@@H](C)CCCCO[C@@H]1CN(C)Cc1ccncc1`, the relative growth was inactive: 1. Take `C[C@@H]1CCCCO[C@H](CN(C)C(=O)Nc2ccccc2)[C@@H](C)CN([C@@H](C)CO)C(=O)c2cc(NC(=O)C3CCCCC3)ccc2O1`: the relative growth is inactive: 0.963. Take `C[C@H](CO)N1C[C@H](C)[C@H](CN(C)Cc2ccc(C(=O)O)cc2)OCCCC[C@H](C)Oc2ccc(NS(=O)(=O)c3ccc(F)cc3)cc2C1=O`: the relative growth is inactive: 1.

As for `C=CC[C@@H](CC(=O)N[C@H](CO)Cc1ccccc1)C(=O)N[C@H](C)COC(=O)[C@@H](CC=C)CC(=O)OC(C)(C)C`, the relative growth was inactive: 0.996.

As to `COc1ccc(NC(=O)Nc2ccc3c(c2)C(=O)N([C@@H](C)CO)C[C@H](C)[C@H](CN(C)Cc2ccc(Cl)c(Cl)c2)O3)cc1`, the relative growth was inactive: 1.03. `C[C@@H]1CCCCO[C@@H](CN(C)C(=O)C2CCCCC2)[C@@H](C)CN([C@@H](C)CO)C(=O)c2cc(NC(=O)Nc3cccc4ccccc34)ccc2O1`: the relative growth is inactive: 1.01. For `C[C@H](CO)N1C[C@H](C)[C@H](CN(C)C(=O)C2CCCCC2)Oc2cc(C#CC3CC3)ccc2S1(=O)=O`, the relative growth was inactive: 1.01. On to `C[C@@H]1CCCCO[C@H](CN(C)S(=O)(=O)c2ccccc2)[C@@H](C)CN([C@@H](C)CO)C(=O)c2cc(NC(=O)Nc3ccc(F)cc3)ccc2O1`, for which the relative growth is inactive: 1.02. `C[C@H](CO)N1C[C@H](C)[C@@H](CN(C)Cc2ccc(Oc3ccccc3)cc2)Oc2cc(Br)ccc2S1(=O)=O`: the relative growth was inactive: 1.04. `C[C@@H]1CN([C@H](C)CO)C(=O)c2cc(NC(=O)NC3CCCCC3)ccc2O[C@H]1CN(C)S(=O)(=O)c1cn(C)cn1`: the relative growth is inactive: 0.979.

Regarding `C[C@H](CO)N1C[C@H](C)[C@@H](CN(C)C(=O)Nc2cccc3ccccc23)Oc2ccc(NS(=O)(=O)c3ccc(Cl)cc3)cc2C1=O`, the relative growth was inactive: 1.02. The same measure for `C[C@H]1CCCCO[C@H](CN(C)S(=O)(=O)c2ccc(Cl)cc2)[C@@H](C)CN([C@@H](C)CO)C(=O)c2cc(NC(=O)c3ccccc3)ccc2O1`: inactive: 1.01; for `Cc1ccc(S(=O)(=O)N(C)C[C@H]2Oc3ccc(NC(=O)Nc4ccc(C(F)(F)F)cc4)cc3C(=O)N([C@H](C)CO)C[C@H]2C)cc1`: inactive: 1.01; for `C[C@H]1CN([C@@H](C)CO)C(=O)c2cc(NC(=O)Nc3ccc(C(F)(F)F)cc3)ccc2O[C@@H]1CN(C)C(=O)Nc1ccccc1`: inactive: 0.967.

With `C[C@@H]1CCCCO[C@H](CN(C)Cc2ccc3c(c2)OCO3)[C@H](C)CN([C@H](C)CO)C(=O)c2cc(NC(=O)Nc3cccc4ccccc34)ccc2O1`, the relative growth is inactive: 1.03.

With `COCC(=O)Nc1ccc2c(c1)OC[C@H](C)N(C(=O)Cc1ccccn1)C[C@@H](C)[C@@H](OC)CN(C)C2=O`, the relative growth is inactive: 1.03.

On to `CC[C@@H](C)N[C@H]1CCS(=O)(=O)C1`, for which the relative growth was inactive: 0.981. Regarding `C[C@H](CO)N1C[C@H](C)[C@H](CN(C)Cc2ccc(C(=O)O)cc2)Oc2c(NS(=O)(=O)c3cn(C)cn3)cccc2C1=O`, the relative growth is inactive: 1.02. With `CC(C)OC(=O)c1nnc(N)[nH]1`, the relative growth was inactive: 0.967. With `CC(C)NC(=O)N[C@@H]1C=C[C@H](CC(=O)NCCCN(C)C)O[C@@H]1CO`, the relative growth was inactive: 1.07.

Consider `CO[C@@H]1CN(C)C(=O)c2cc(NC(=O)Nc3cccc(F)c3)ccc2OC[C@H](C)N(C(=O)Nc2c(C)noc2C)C[C@@H]1C`, for which the relative growth was inactive: 1.

In the case of `C[C@@H]1CN([C@@H](C)CO)C(=O)c2cc(NC(=O)CCC(F)(F)F)ccc2O[C@@H](C)CCCCO[C@@H]1CN(C)Cc1ccccc1`, the relative growth is inactive: 0.987. On to `COCC(=O)Nc1ccc2c(c1)C(=O)N(C)C[C@@H](OC)[C@H](C)CN(Cc1ccccc1F)[C@H](C)CO2`, for which the relative growth was inactive: 0.989. As to `C[C@@H]1CN([C@@H](C)CO)C(=O)c2cc(Br)cnc2O[C@H]1CN(C)C(=O)CCN1CCCCC1`, the relative growth was inactive: 1.02. On to `C[C@H](CO)N1C[C@H](C)[C@H](CN(C)S(=O)(=O)c2cn(C)cn2)Oc2ncc(C#Cc3ccc(C(F)(F)F)cc3)cc2C1=O`, for which the relative growth is inactive: 0.902. The same measure for `CCCCc1c(C)nc2ccc(Br)cc2c1SC(N)N`: inactive: 1.01; for `CC(C)NC(=O)N(C)C[C@@H]1Oc2c(NS(=O)(=O)c3cccs3)cccc2C(=O)N([C@@H](C)CO)C[C@@H]1C`: inactive: 0.984; for `C[C@H]1CCCCO[C@@H](CN(C)Cc2ccccc2)[C@@H](C)CN([C@@H](C)CO)C(=O)c2cc(NC(=O)Nc3cccc4ccccc34)ccc2O1`: inactive: 1.04. Consider `C[C@@H]1CCCCO[C@H](CN(C)C(=O)Nc2ccc(C(F)(F)F)cc2)[C@H](C)CN([C@H](C)CO)C(=O)c2cc(NS(=O)(=O)c3cn(C)cn3)ccc2O1`, for which the relative growth is inactive: 0.97.

With `Cc1noc(C)c1NC(=O)Nc1cccc2c1O[C@@H](CN(C)Cc1ccc(Cl)c(Cl)c1)[C@H](C)CN([C@H](C)CO)C2=O`, the relative growth is inactive: 1.04.

On to `Cn1c(N)c(NC(=O)c2cccs2)c(=O)[nH]c1=O`, for which the relative growth is inactive: 0.998. The value for `C[C@H](CO)N1C[C@H](C)[C@H](CN(C)S(=O)(=O)c2ccc(F)cc2)Oc2ncc(C#Cc3ccccc3)cc2C1=O` was inactive: 1.01.
